# Test results reported in PubChem BioAssay (NCATS).
# Inconclusive results, whose numbers are uncertain, are shown with a selection of clear calls. No potency is given beside an inconclusive call; the fits are too rough. The source made the active and inactive calls. Calls come from the whole dose curve; as a rule, active = well fitted curve in the direction sought with a large enough effect; inconclusive = small, poorly fitted or top-dose-only effect, or another doubt; inactive = no such curve, though single readings can be large; an effect the other way counts as inactive or inconclusive.
# Key:
# [1] = BET inhibitor-based combinations targeting novel dependencies in MECOM-rearranged (r) AML: MV-4-11 cell line (AID 2202233); settings: MV-4-11 AML viability, CellTiter-Glo luminescence, 48 h; viability, % of control: at 46 µM (top of the series) unless noted; note: nearly all actives have a fitted effect of over 45% in size;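 for viability, % of control: plate controls were DMSO for no effect and blank wells for full effect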
# Method in brief: (§1)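 Cells were plated at 500 per well and exposed to each drug across an 11-point dose range for 48 hr at standard incubator conditions. Viability was read by CellTiter-Glo luminescence, and activity was expressed as AUC and per-cell-line Z-transformed AUC.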
# [2] = BET inhibitor-based combinations targeting novel dependencies in MECOM-rearranged (r) AML: AML-191 cell line (AID 2202236; note: nearly all actives have a fitted effect of over 35% in size;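 for viability (% of control): plate controls were vehicle wells for no effect and wells without cells for full effect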)
# Method in brief: (§2)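 500 cells/well; 11-pt dose curve; 48 h, standard incubator; CellTiter-Glo luminescence after 15 min RT; DMSO/empty-well normalization; AUC plus Z-AUC (mean-centered within each line).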
# [3] = BET inhibitor-based combinations targeting novel dependencies in MECOM-rearranged (r) AML: HNT-34 cell line (AID 2202234); note: nearly all actives have a fitted effect of over 35% in size;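 for viability (% of control): plate controls were vehicle wells for no effect and cell-free wells for full effect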
# Method in brief: as §1
# [4] = BET inhibitor-based combinations targeting novel dependencies in MECOM-rearranged (r) AML: AML-194 cell line (AID 2202237; note: nearly all actives have a fitted effect of over 40% in size;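 for viability (% of control): plate controls were vehicle wells for no effect and wells without cells for full effect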)
# Method in brief: as §2
# [5] = BET inhibitor-based combinations targeting novel dependencies in MECOM-rearranged (r) AML: UCSD-AML1 cell line (AID 2202235); settings: UCSD-AML1 AML cells viability, CellTiter-Glo, 48 h; viability (% of control): at 46 µM (top of the series); note: nearly all actives have a fitted effect of over 40% in size;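 for viability (% of control): plate controls were DMSO vehicle wells for no effect and blank wells for full effect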
# Method in brief: as §1
# Potency is the fitted concentration of half-maximal effect; tags give direction and shape of the fitted curve.
structure (smiles),measurement,setting,value
CNC(=O)c1ccc(-c2cnc3ncc(Cc4ccc5ncccc5c4)n3n2)cc1F,Potency,[1],"inconclusive [inhibitor, partial curve]"
same,Potency,[2],"inconclusive [inhibitor, partial curve, poor fit]"
O=c1[nH]cnc2[nH]ncc12,Potency,[1],inactive
same,Potency,[3],active: 0.0013 µM
same,Potency,[4],inactive
CNC[C@H](O)c1ccc(O)c(O)c1,Potency,[1],inconclusive [inhibitor]
same,Potency,[2],inactive
CC(C)S(=O)(=O)c1ccc2nccc(Nc3ccc4scnc4c3)c2c1,Potency,[1],"inconclusive [inhibitor, partial curve]"
same,Potency,[5],"inconclusive [inhibitor, partial curve, poor fit]"
same,Potency,[2],inactive
same,Potency,[4],inactive
CC1(N)CCN(c2cnc(-c3cccc(Cl)c3Cl)c(N)n2)CC1,Potency,[1],active: 2.88 µM
same,Potency,[5],inactive
COc1cc(CNC(=O)CCCC/C=C/C(C)C)ccc1O,Potency,[1],"inconclusive [inhibitor, partial curve, poor fit]"
same,Potency,[5],"inconclusive [inhibitor, single point]"
same,Potency,[2],"inconclusive [inhibitor, partial curve, poor fit]"
CCC(C(=O)O)C1CCC(C)C(C(C)C(O)C(C)C(=O)C(CC)C2OC3(C=CC(O)[C@@]4(CC[C@](C)(C5CC[C@@](O)(CC)C(C)O5)O4)O3)C(C)CC2C)O1 (stereo not given in full),Potency,[1],active: 1.66 µM
same,Potency,[5],active: 13.2 µM
same,Potency,[4],active: 1.18 µM
CC(=O)O/N=C1\C(=O)N(Cc2cc(Cl)ccc2Cl)c2ccc(Cl)cc21,Potency,[1],"inconclusive [inhibitor, partial curve]"
same,Potency,[3],active: 2.95 µM
same,Potency,[4],active: 2.63 µM
O=C(Nc1ncc(SCCN2CCCC2)s1)[C@]1(c2ccc(S(=O)(=O)C3CC3)cc2)C[C@H]1C1CCCCC1,Potency,[1],active: 11.8 µM
same,Potency,[5],"inconclusive [inhibitor, partial curve, poor fit]"
COc1c(C)cc(NC(=O)c2nn(Cc3ccc(F)cc3)c3c2CN(C(=O)c2ccc[nH]2)C[C@]3(C)C(N)=O)cc1C,"viability, % of control",[1],inactive: 114% [at 8.46 µM]
same,Potency,[5],"inconclusive [inhibitor, single point]"
same,Potency,[2],"inconclusive [inhibitor, single point]"
same,viability (% of control),[4],inactive: 108% [at 8.46 µM]
Cc1cccc(-c2[nH]c(CNc3ccccc3F)nc2-c2ccc3ncnn3c2)n1,Potency,[1],"inconclusive [inhibitor, partial curve]"
same,Potency,[3],"inconclusive [inhibitor, single point]"
same,Potency,[2],inactive
same,Potency,[4],inactive
C=C1C(=O)OC2/C=C(/C)CC/C=C(/C)CCC12 (stereo not given),Potency,[1],active: 14.8 µM
same,Potency,[3],"inconclusive [inhibitor, partial curve, poor fit]"
same,Potency,[4],"inconclusive [inhibitor, single point]"
C[C@]12CCC3=C4CCC(=O)C=C4CC[C@H]3[C@@H]1CC[C@@]2(O)CC#N,Potency,[1],inactive
same,Potency,[3],"inconclusive [inhibitor, full curve, poor fit]"
same,Potency,[4],inactive
CNCCCOc1cc(F)c(-c2c(Cl)nc3ncnn3c2N[C@@H](C)C(F)(F)F)c(F)c1,Potency,[1],active: 0.0934 µM
same,Potency,[5],active: 0.118 µM
same,Potency,[4],active: 0.105 µM
OCCn1cc(-c2ccc3c(c2)CC/C3=N\O)c(-c2ccncc2)n1,Potency,[1],"inconclusive [inhibitor, partial curve]"
same,Potency,[5],inactive
same,Potency,[2],"inconclusive [inhibitor, full curve]"
same,Potency,[4],"inconclusive [inhibitor, single point]"
OC[C@@H](O)[C@@H](O)[C@H](O)[C@@H](O)CO,Potency,[1],inactive
same,Potency,[5],"inconclusive [inhibitor, single point]"
C#C[C@]1(O)CC[C@H]2[C@@H]3CCC4=CC(=O)CC[C@@H]4[C@H]3CC[C@@]21CC,Potency,[1],active: 13.2 µM
same,Potency,[5],"inconclusive [inhibitor, single point]"
same,Potency,[2],"inconclusive [inhibitor, partial curve, poor fit]"
CC(C)(O)CS(=O)(=O)Nc1ccc2c(c1)CCN(C(=O)COc1cccnc1)C2,Potency,[1],active: 0.105 µM
same,Potency,[5],active: 0.332 µM
same,Potency,[4],inactive
CNC(=O)CCc1cc(-c2ccc(-c3ccc(C(F)(F)F)cc3)cc2)n(-c2ccc(N3CCNCC3)cc2)n1,Potency,[1],"inconclusive [inhibitor, full curve, poor fit]"
same,Potency,[5],"inconclusive [inhibitor, single point]"
same,Potency,[2],active: 5.9 µM
Cc1cn2cc(C(=O)N(C)CCO)cc(N[C@@H]3CCOc4cccc(C)c43)c2n1,Potency,[1],inactive
same,Potency,[3],inactive
same,Potency,[4],inactive
c1cc(N[C@@H]2CCNC2)nc(-c2cnc3ccc(-c4cn[nH]c4)cn23)c1,Potency,[1],active: 0.0132 µM
same,Potency,[5],"inconclusive [inhibitor, partial curve, poor fit]"
Clc1cc2c(NC3CCCC3)nnc(-c3ccncc3)c2cc1Cl,Potency,[1],inactive
same,Potency,[5],inactive
same,Potency,[4],inactive
CC(=O)N1CCN(c2ccc(NC(=O)Cc3cnc(-c4ccnc(F)c4)c(C)c3)nc2)CC1,Potency,[1],"inconclusive [inhibitor, full curve, poor fit]"
same,Potency,[5],"inconclusive [inhibitor, single point]"
S=c1nc[nH]c2nc[nH]c12,Potency,[1],active: 0.417 µM
same,Potency,[5],active: 3.72 µM
same,Potency,[2],"inconclusive [inhibitor, full curve]"
Cc1[nH]c(/C=C2\C(=O)Nc3ccccc32)c(C)c1CCC(=O)O,Potency,[1],active: 13.2 µM
same,Potency,[5],"inconclusive [inhibitor, single point]"
same,Potency,[2],"inconclusive [inhibitor, partial curve]"
same,Potency,[4],"inconclusive [inhibitor, single point]"
c1cc(-c2sc(-c3ccncc3)c(-c3ccncc3)c2-c2ccncc2)ccn1,Potency,[1],"inconclusive [inhibitor, full curve, poor fit]"
same,Potency,[3],"inconclusive [inhibitor, partial curve]"
same,Potency,[4],inactive
c1ccc(-c2nn3c(c2-c2ccnc4cc(OCCN5CCOCC5)ccc24)CCC3)nc1,Potency,[1],"inconclusive [inhibitor, partial curve]"
same,Potency,[3],"inconclusive [inhibitor, single point]"
same,Potency,[4],"inconclusive [inhibitor, single point]"
CCS(=O)(=O)N1CCC(C(C)n2c(C)c(C(=O)NCc3c(OC)cc(C)[nH]c3=O)c3ccccc32)CC1 (stereo not given),Potency,[1],"inconclusive [inhibitor, partial curve, poor fit]"
same,Potency,[5],inactive
same,Potency,[2],inactive
same,Potency,[4],inactive
Cc1cc(/C=c2/sc3nc4ccccc4n3c2=O)c(C)n1-c1ccccc1,Potency,[1],active: 20.9 µM
same,Potency,[3],"inconclusive [inhibitor, single point]"
same,Potency,[4],"inconclusive [inhibitor, partial curve, poor fit]"
C=C(C)[C@@H]1CC[C@]2(C)CC[C@]3(C)[C@H](CC[C@@H]4[C@@]5(C)CC[C@H](O)C(C)(C)[C@H]5CC[C@]43C)[C@@H]12,Potency,[1],inactive
same,Potency,[2],inactive
O=C(CCCCCCNC(=O)c1cnc(N(c2ccccc2)c2ccccc2Cl)nc1)NO,Potency,[1],active: 3.72 µM
same,Potency,[5],active: 9.34 µM
N#C[C@@H]1C[C@@H]2C[C@@H]2N1C(=O)[C@@H](N)C12CC3CC(CC(O)(C3)C1)C2,Potency,[1],"inconclusive [inhibitor, partial curve]"
same,Potency,[5],"inconclusive [inhibitor, single point]"
Cc1[nH]nc(C(F)(F)F)c1Cc1sc2c(c1C(=O)N1C[C@](C)(O)CO1)c(=O)n(C)c(=O)n2C(C)C,Potency,[1],inactive
same,Potency,[3],inactive
same,Potency,[4],inactive
